In publication PMC12153800:
No constants are given. Whether binding was seen depends on the method and setting. In cells and extracts the contact can be indirect. Some binding calls cover weakened binding; strength is not graded here. Tags and fused reporters may be left off the sequences shown. One block for each binder: values may come before it.

Chains of the proteins cited; added tags and fusions are not shown. Residues count along the entry.
UniProt Q9EQD0, residues 27-585: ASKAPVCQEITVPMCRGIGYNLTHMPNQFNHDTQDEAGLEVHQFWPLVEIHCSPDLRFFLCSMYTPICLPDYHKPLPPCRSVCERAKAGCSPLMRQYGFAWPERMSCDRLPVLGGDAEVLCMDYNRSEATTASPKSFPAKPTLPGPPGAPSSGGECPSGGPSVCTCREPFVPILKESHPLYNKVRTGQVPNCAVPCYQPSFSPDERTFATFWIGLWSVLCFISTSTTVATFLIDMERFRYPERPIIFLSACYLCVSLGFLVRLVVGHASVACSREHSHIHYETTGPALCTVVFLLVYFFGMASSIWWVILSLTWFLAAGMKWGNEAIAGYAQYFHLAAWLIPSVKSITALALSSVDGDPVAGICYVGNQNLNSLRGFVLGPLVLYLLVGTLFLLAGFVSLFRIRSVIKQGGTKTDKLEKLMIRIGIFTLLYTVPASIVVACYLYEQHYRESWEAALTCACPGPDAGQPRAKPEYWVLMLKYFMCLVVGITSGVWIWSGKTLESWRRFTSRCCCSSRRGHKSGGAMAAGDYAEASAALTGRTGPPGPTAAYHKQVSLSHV
UniProt Q61091, residues 28-685: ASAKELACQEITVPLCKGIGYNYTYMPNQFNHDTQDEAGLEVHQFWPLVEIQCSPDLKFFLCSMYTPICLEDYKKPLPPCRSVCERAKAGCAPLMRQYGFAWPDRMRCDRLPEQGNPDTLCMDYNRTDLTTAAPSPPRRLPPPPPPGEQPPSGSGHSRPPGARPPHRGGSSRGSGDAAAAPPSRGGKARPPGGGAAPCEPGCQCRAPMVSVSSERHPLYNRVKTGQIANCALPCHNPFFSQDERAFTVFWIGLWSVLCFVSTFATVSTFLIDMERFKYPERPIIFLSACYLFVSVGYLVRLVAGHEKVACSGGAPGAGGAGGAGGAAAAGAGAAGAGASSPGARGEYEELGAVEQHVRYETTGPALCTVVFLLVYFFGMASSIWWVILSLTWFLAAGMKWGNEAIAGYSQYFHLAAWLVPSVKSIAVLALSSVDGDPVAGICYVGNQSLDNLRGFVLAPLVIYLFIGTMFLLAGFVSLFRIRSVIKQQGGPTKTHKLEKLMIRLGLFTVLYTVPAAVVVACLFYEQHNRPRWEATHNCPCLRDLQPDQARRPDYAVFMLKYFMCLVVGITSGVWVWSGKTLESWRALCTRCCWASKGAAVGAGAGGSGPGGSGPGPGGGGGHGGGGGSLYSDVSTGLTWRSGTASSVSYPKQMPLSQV

What was measured:
Experiment in all cases: FRET or BRET; NanoBiT/BRET association kinetics on live U-2 OS cells stably expressing low levels of HiBiT-FZD-mCherry; LgBiT and Vivazine added; four concentrations of eGFP-Wnt conditioned medium (Wnt3a up to 15.2 nM, Wnt5a up to 17.3 nM, Wnt16 up to 24 nM); 37 °C, DMEM with 5% FBS and 10 mM HEPES, read every 80 s for 300 min; kinetic Kd
HiBiT-FZD3-mCherry = target: T1, HiBiT-FZD3-mCherry (UniProt Q61086)
T1 sequence: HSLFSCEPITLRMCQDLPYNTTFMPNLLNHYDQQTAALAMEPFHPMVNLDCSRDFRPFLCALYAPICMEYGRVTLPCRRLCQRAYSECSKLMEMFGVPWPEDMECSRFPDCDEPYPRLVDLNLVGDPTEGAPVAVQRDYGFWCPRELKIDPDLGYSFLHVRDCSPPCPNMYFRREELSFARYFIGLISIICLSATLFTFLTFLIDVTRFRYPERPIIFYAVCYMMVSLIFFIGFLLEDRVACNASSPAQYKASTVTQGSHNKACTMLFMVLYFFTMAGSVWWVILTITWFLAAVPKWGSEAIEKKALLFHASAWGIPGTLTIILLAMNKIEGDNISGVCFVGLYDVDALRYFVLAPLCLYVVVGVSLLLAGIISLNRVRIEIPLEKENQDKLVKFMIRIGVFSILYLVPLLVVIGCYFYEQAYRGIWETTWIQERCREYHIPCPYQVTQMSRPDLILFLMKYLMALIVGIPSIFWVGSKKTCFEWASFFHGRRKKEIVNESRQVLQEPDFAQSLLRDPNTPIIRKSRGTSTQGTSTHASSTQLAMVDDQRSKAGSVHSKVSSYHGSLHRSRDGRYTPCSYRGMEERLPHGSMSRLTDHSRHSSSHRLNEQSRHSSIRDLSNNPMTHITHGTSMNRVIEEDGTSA

[1] = target: HiBiT-FZD5-mCherry (U-2 OS cells) (mouse) (UniProt Q9EQD0)
HiBiT-FZD6-mCherry = target: T2, HiBiT-FZD6-mCherry (UniProt Q61089)
T2 sequence: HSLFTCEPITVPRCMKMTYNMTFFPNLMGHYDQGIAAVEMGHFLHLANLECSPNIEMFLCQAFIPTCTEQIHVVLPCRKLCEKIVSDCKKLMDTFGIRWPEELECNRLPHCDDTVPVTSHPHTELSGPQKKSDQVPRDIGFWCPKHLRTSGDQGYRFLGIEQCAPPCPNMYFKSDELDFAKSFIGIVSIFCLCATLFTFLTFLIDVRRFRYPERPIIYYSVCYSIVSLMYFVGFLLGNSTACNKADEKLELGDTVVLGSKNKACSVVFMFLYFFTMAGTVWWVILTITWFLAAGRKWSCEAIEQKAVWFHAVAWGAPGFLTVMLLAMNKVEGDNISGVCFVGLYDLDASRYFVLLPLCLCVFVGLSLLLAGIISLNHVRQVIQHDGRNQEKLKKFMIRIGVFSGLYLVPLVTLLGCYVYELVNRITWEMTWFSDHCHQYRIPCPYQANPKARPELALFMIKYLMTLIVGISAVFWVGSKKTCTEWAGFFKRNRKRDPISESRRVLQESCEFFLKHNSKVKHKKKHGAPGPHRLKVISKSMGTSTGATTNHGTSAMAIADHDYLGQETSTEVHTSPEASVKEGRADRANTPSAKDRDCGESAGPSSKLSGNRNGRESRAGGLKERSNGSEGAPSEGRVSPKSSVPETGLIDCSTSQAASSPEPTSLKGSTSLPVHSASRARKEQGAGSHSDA

[2] = target: HiBiT-FZD8-mCherry (mouse) (UniProt Q61091)
[3] = target: T3, HiBiT-FZD9-mCherry (mouse) (UniProt Q9R216)
T3 sequence: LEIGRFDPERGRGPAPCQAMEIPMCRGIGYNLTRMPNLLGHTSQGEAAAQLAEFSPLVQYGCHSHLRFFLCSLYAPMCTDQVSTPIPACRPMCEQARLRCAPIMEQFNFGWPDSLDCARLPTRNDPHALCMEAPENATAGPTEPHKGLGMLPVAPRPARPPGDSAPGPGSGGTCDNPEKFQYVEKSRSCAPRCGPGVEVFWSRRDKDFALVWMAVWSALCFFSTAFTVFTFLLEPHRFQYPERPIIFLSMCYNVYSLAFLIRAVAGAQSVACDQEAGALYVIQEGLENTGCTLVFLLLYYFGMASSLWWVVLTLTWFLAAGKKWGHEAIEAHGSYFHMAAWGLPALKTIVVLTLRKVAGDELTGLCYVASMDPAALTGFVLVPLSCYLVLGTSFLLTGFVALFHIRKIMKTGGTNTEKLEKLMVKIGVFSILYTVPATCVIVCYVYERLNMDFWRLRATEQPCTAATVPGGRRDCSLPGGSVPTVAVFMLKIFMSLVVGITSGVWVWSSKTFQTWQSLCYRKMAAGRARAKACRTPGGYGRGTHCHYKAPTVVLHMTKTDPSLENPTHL

binding (HiBiT-FZD3-mCherry): no binding (tested: 17.3 nM) | binding [1]: binds | binding (HiBiT-FZD6-mCherry): no binding (tested: 17.3 nM) | binding [2]: binds | binding [3]: no binding (tested: 17.3 nM)
B1: eGFP-Wnt5a (ligand, UniProt P41221 62-380)
chain: IIGAQPLCSQLAGLSQGQKKLCHLYQDHMQYIGEGAKTGIKECQYQFRHRRWNCSTVDNTSVFGRVMQIGSRETAFTYAVSAAGVVNAMSRACREGELSTCGCSRAARPKDLPRDWLWGGCGDNIDYGYRFAKEFVDARERERIHAKGSYESARILMNLHNNEAGRRTVYNLADVACKCHGVSGSCSLKTCWLQLADFRKVGDALKEKYDSAAAMRLNSRGKLVQVNSRFNSPTTQDLVYIDPSPDYCVRNESTGSLGTQGRLCNKTSEGMDGCELMCCGRGYDQFKTVQTERCHCKFHWCCYVKCKKCTEIVDQFVCK

binding (HiBiT-FZD3-mCherry): no binding (tested: 24 nM) | binding [1]: binds | binding (HiBiT-FZD6-mCherry): no binding (tested: 24 nM) | binding [2]: binds | binding [3]: no binding (tested: 24 nM)
B2: eGFP-Wnt16 (ligand, UniProt Q9UBV4 30-365)
chain: NWMWLGIASFGVPEKLGCANLPLNSRQKELCKRKPYLLPSIREGARLGIQECGSQFRHERWNCMITAAATTAPMGASPLFGYELSSGTKETAFIYAVMAAGLVHSVTRSCSAGNMTECSCDTTLQNGGSASEGWHWGGCSDDVQYGMWFSRKFLDFPIGNTTGKENKVLLAMNLHNNEAGRQAVAKLMSVDCRCHGVSGSCAVKTCWKTMSSFEKIGHLLKDKYENSIQISDKTKRKMRRREKDQRKIPIHKDDLLYVNKSPNYCVEDKKLGIPGTQGRECNRTSEGADGCNLLCCGRGYNTHVVRHVERCECKFIWCCYVRCRRCESMTDVHTCK
